# Source: the supplement of paper PMC12217912
# The list shows a part of the results. The full chains were built here from the parent and the listed change. Values near 0.05 are background.
# B1: TEV protease; numbered along this chain (parent)
# chain: MGESLFKGPRDYNPISSSICHLTNESDGHTTSLYGIGFGPFIITNKHLFRRNNGTLVVQSLHGVFKVKDTTTLQQHLVDGRDMIIIRMPKDFPPFPQKLKFREPQREERICLVTTNFQTKSMSSMVSDTSCTFPSGDGIFWKHWIQTKDGQCGSPLVSTRDGFIVGIHSASNFTNTNNYFTSVPKNFMELLTNQEAQQWVSGWRLNADSVLWGGHKVFMVKPEEPFQPVKEATQL
# Variants of: B1
# Assay: raw area under fraction-flipped curve 0-4 h after induction (AUC4h, not background-subtracted), DNA-recorder readout of cleavage of the substrate (dimensionless); higher = more cleavage of the substrate by the protease variant
# Settings: temperature: 34 °C; time window: 0-4 h after rhamnose induction
# Description: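 In vivo DNA recorder in E. coli TOP10(DE3) ΔrhaA at 34 °C. Each TEVp single-site mutant (parent TEVp 0) is paired with a single-site variant of the 7-mer TEVs (canonical ENLYFQ|S). The substrate sits between flexible linkers in a Bxb1-sfGFP-TEVs-SsrA fusion, so cleavage stabilises Bxb1 and speeds flipping of a recombination array, read by NGS. The value is the raw area under the fraction-flipped curve over 0-4 h after rhamnose induction (AUC4h), with ≥20 reads per time point. It is not background-subtracted; inactive controls average about 0.047.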
# 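Also: Bxb1 expression induced with 0.2% (w/v) L-rhamnose at OD600 near 0.5, cultures sampled hourly, flipped fraction per protease–substrate barcode pair counted by paired-end Illumina sequencing.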
Variant,area with substrate ENAYFQS,area with substrate ENCYFQS,area with substrate ENDYFQS,area with substrate ENEYFQS,area with substrate ENFYFQS,area with substrate ENGYFQS,area with substrate ENHYFQS,area with substrate ENIYFQS,area with substrate ENKYFQS,area with substrate ENNYFQS,area with substrate ENPYFQS,area with substrate ENQYFQS,area with substrate ENRYFQS,area with substrate ENSYFQS,area with substrate ENTYFQS,area with substrate ENWYFQS,area with substrate ENVYFQS,area with substrate ENYYFQS,area with substrate ENMYFQS
S130V,0.0584,0.0689,0.0621,0.0618,0.067,0.0523,0.0673,0.125,0.0663,0.0714,0.0585,0.0645,0.07,0.0591,0.0663,0.0558,–,–,–
S130E,0.033,–,0.0518,0.0421,0.0729,–,–,–,–,0.0616,–,–,–,0.0691,–,–,0.0751,0.0673,–
E107L,0.0702,0.055,–,0.0654,0.0669,0.0748,0.0699,0.108,0.0584,0.0629,–,–,0.0421,0.0641,0.0723,–,–,–,–
V113M,0.0688,0.0682,0.0701,–,–,–,0.058,0.0935,–,0.064,0.0567,0.0638,0.0488,0.0491,–,0.0232,0.0782,0.0342,0.0677
F117E,0.0601,0.138,0.0615,0.0667,0.0629,0.0561,0.0601,–,–,0.0566,0.0524,0.0618,0.0568,0.0661,0.0722,–,0.0505,0.0584,0.0786
C131M,0.0601,0.0772,–,0.0786,0.0653,0.0678,–,0.0966,–,–,–,0.0635,–,0.058,–,0.0083,–,–,–
V126C,0.067,0.0759,–,–,–,0.0799,0,–,–,–,–,0.0594,0.0492,0.0697,0.0552,–,0.0726,–,–
R106S,0.061,0.0542,0.0501,0.0548,0.0749,0.0457,–,–,–,0.0647,0.0517,0.0606,0.0681,0.0731,0.0649,–,0.0742,0.0709,–
I84A,0.0611,–,0.0711,0.0623,0.0505,–,0.0535,–,–,0.0614,–,0.0602,–,0.0659,–,–,–,–,–
I84S,0.0512,0.0695,0.0544,0.0532,0.0561,0.0496,–,0.0668,–,0.0622,0.0341,0.0574,0.0449,0.0444,0.0562,–,0.0577,–,0.0584
I85T,0.0739,0.0592,0.0602,0.0335,0.072,0.0637,–,0.0602,–,0.0622,0.0582,–,0.0532,–,0.0439,–,0.0795,–,–
I85Y,0.0541,–,0.079,0.0653,0.0704,0.0609,0.0563,0.0559,0.0635,0.0655,0.0566,0.0426,–,0.0633,0.0539,–,0.051,0.0646,0.0543
C111D,0.0541,0.071,0.0582,0.0547,0.0508,0.0509,0.0519,0.0624,–,0.0561,0.0552,0.0578,0.0681,0.0618,0.0629,–,0.0633,–,0.0568
D82L,0.0458,0.0556,0.0433,0.0634,0.0504,0.0554,–,–,0.0534,–,0.054,0.0486,0.0589,–,–,–,–,–,–
K98F,0.0604,–,0.0657,0.0657,–,0.0722,–,–,–,–,0.061,0.061,0.0544,0.0514,0.0643,–,–,0.0547,–
K98P,0.0599,0.0588,0.035,0.06,0.0583,0.0584,0.0639,0.12,–,0.0567,–,0.0709,0.0564,0.0519,–,0.0566,0.078,–,0.0715
S121I,0.0534,0.0705,0.0679,0.0651,0.0596,0.0586,–,0.104,0.0496,0.0533,–,0.0649,–,0.0501,0.0486,0.0778,0.0691,–,–
S121K,0.0622,0.0761,0.052,0.0619,0.0659,0.0587,0.0527,–,–,0.057,–,0.0618,0.0672,0.0754,0.0786,–,0.067,0.0605,0.0852
I110K,0.0523,0.0535,0.0614,–,0.0496,0.0593,–,0.0589,0.0629,0.0603,0.0603,0.0582,0.0549,–,0.0599,–,0.0536,0.0677,0.0239
I110N,0.0581,0.0345,0.0574,–,0.0961,–,–,0.0522,0.0454,–,–,0.0572,0.0467,0.0542,0.0556,0.0421,0.0585,0.0539,–
P94T,0.0747,–,0.0623,–,–,0.0699,–,0.0939,0.0699,0.0651,–,0.0585,–,0.051,0.0644,0.0473,0.0889,–,–
P94W,0.0668,–,0.0634,0.0548,0.0645,0.056,0.052,0.0803,–,0.0665,0.0512,0.14,0.0627,0.0406,0.0735,0.0634,0.0819,0.07,–
N116P,0.0492,0.0572,0.0469,0.0728,0.0143,0.0649,0.057,–,0.0654,–,0.0579,0.0573,0.0417,–,0.0722,–,–,0.0586,0.0703
N116L,0.098,0.0359,–,0.0577,0.0701,0.0628,–,0.127,0.0846,0.0331,–,0.0594,–,0.0644,–,–,0.0825,0.0534,–
N116Y,0.0568,0.073,0.0625,0.0742,0.0735,0.0686,0.0612,0.0943,–,0.0731,0.0792,0.0591,–,–,–,–,0.0801,0.0638,–
L99Y,0.0489,0.0661,0.0476,–,0.108,–,0.0614,0.0831,0.0738,0.0828,0.0682,–,0.0551,0.0632,0.0392,–,0.0627,0.0518,–
L99R,0.0561,0.0827,0.0758,0.0686,0.077,0.0859,0.0753,0.0773,–,–,–,0.0633,–,0.0622,0.0853,0.0616,0.0524,–,0.0801
